# Measured values as given in the supplement of paper PMC8728848.
# The list shows a part of the results.
# B1: AT1G15820(NC) (Arabidopsis thaliana) (protein)
# chain: MAMAVSGAVLSGLGSSFLTGGKRGATALASGVGDAIAPFSFGSLLGTQLLLMGWVESKRWVDFFNPDSQSVEWATPWSKTAENFANYTGDQGYPGGRFFDPLGLAGKNRDGVYEPDFEKLERLKLAEIKHSRLAMVAMLIFYFEAGQGKTPLGALGL
# Assays:
# Assay in all cases: glycan array binding signal (z-score within array); higher = stronger binding
# Conditions in all cases: glycan notation: IUPAC condensed, linker removed
# [1] = biological target: Fuc(a1-2)Gal6S(b1-3)GlcNAc6S
# In short: (§1)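 The binding signal is a Z-score computed within each array and averaged over linkers. Arrays of the same protein sequence at different concentrations or buffers were also averaged together. Data originate from 3228 arrays in the Consortium for Functional Glycomics database, kept only where the protein sequence was available.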
# Fuc(a1-2)Gal6S(b1-4)Glc = biological target: Fuc(a1-2)Gal6S(b1-4)Glc
# In short: as §1
# [2] = biological target: Fuc(a1-2)Gal6S(b1-4)Glc6S
# In short: as §1
# Fuc(a1-2)[Gal(a1-3)]Gal = biological target: Fuc(a1-2)[Gal(a1-3)]Gal
# In short: as §1
# [3] = biological target: Fuc(a1-2)[Gal(a1-3)]Gal(b1-3)GalNAc
# In short: as §1
# [4] = biological target: Fuc(a1-2)[Gal(a1-3)]Gal(b1-3)GalNAc(b1-3)Gal(a1-4)Gal(b1-4)Glc
# In short: as §1
# [5] = biological target: Fuc(a1-2)[Gal(a1-3)]Gal(b1-3)GlcNAc
# In short: as §1
# [6] = biological target: Fuc(a1-2)[Gal(a1-3)]Gal(b1-3)GlcNAc(b1-2)Man(a1-3)[Fuc(a1-2)[Gal(a1-3)]Gal(b1-3)GlcNAc(b1-2)Man(a1-6)]Man(b1-4)GlcNAc(b1-4)GlcNAc
# In short: as §1
# [7] = biological target: Fuc(a1-2)[Gal(a1-3)]Gal(b1-3)GlcNAc(b1-2)Man(a1-3)[Fuc(a1-2)[Gal(a1-3)]Gal(b1-3)GlcNAc(b1-2)Man(a1-6)]Man(b1-4)GlcNAc(b1-4)[Fuc(a1-6)]GlcNAc
# In short: as §1
# [8] = biological target: Fuc(a1-2)[Gal(a1-3)]Gal(b1-3)GlcNAc(b1-3)GalNAc
# In short: as §1
# [9] = biological target: Fuc(a1-2)[Gal(a1-3)]Gal(b1-3)GlcNAc(b1-6)GalNAc
# In short: as §1
# [10] = biological target: Fuc(a1-2)[Gal(a1-3)]Gal(b1-4)Glc
# In short: as §1
# [11] = biological target: Fuc(a1-2)[Gal(a1-3)]Gal(b1-4)GlcNAc
# In short: as §1
# [12] = biological target: Fuc(a1-2)[Gal(a1-3)]Gal(b1-4)GlcNAc(b1-2)Man
# In short: as §1
# [13] = biological target: Fuc(a1-2)[Gal(a1-3)]Gal(b1-4)GlcNAc(b1-2)Man(a1-3)[Fuc(a1-2)[Gal(a1-3)]Gal(b1-4)GlcNAc(b1-2)Man(a1-6)]Man(b1-4)GlcNAc(b1-4)GlcNAc
# In short: as §1
# [14] = biological target: Fuc(a1-2)[Gal(a1-3)]Gal(b1-4)GlcNAc(b1-2)Man(a1-3)[Fuc(a1-2)[Gal(a1-3)]Gal(b1-4)GlcNAc(b1-2)Man(a1-6)]Man(b1-4)GlcNAc(b1-4)[Fuc(a1-6)]GlcNAc
# In short: as §1
# [15] = biological target: Fuc(a1-2)[Gal(a1-3)]Gal(b1-4)GlcNAc(b1-3)GalNAc
# In short: as §1
# [16] = biological target: Fuc(a1-2)[Gal(a1-3)]Gal(b1-4)GlcNAc(b1-3)[Fuc(a1-2)[Gal(a1-3)]Gal(b1-4)GlcNAc(b1-6)]GalNAc
# In short: as §1
# [17] = biological target: Fuc(a1-2)[Gal(a1-3)]Gal(b1-4)GlcNAc(b1-6)GalNAc
# In short: as §1
# [18] = biological target: Fuc(a1-2)[Gal(a1-3)]Gal(b1-4)[Fuc(a1-3)]Glc
# In short: as §1
# [19] = biological target: Fuc(a1-2)[Gal(a1-3)]Gal(b1-4)[Fuc(a1-3)]GlcNAc
# In short: as §1
# [20] = biological target: Fuc(a1-2)[Gal(a1-3)]Gal(b1-4)[Fuc(a1-3)]GlcNAc(b1-3)GalNAc
# In short: as §1
# [21] = biological target: Fuc(a1-2)[Gal(a1-4)]Gal(b1-4)GlcNAc
# In short: as §1
# [22] = biological target: Fuc(a1-2)[GalNAc(a1-3)]Gal
# In short: as §1
# [23] = biological target: Fuc(a1-2)[GalNAc(a1-3)]Gal(b1-3)GalNAc(a1-3)[Fuc(a1-2)]Gal(b1-4)GlcNAc
# In short: as §1
# [24] = biological target: Fuc(a1-2)[GalNAc(a1-3)]Gal(b1-3)GalNAc(b1-3)Gal(a1-4)Gal(b1-4)Glc
# In short: as §1
# [25] = biological target: Fuc(a1-2)[GalNAc(a1-3)]Gal(b1-3)GlcNAc
# In short: as §1
# [26] = biological target: Fuc(a1-2)[GalNAc(a1-3)]Gal(b1-3)GlcNAc(b1-2)Man(a1-3)[Fuc(a1-2)[GalNAc(a1-3)]Gal(b1-3)GlcNAc(b1-2)Man(a1-6)]Man(b1-4)GlcNAc(b1-4)GlcNAc
# In short: as §1
# [27] = biological target: Fuc(a1-2)[GalNAc(a1-3)]Gal(b1-3)GlcNAc(b1-2)Man(a1-3)[Fuc(a1-2)[GalNAc(a1-3)]Gal(b1-3)GlcNAc(b1-2)Man(a1-6)]Man(b1-4)GlcNAc(b1-4)[Fuc(a1-6)]GlcNAc
# In short: as §1
# [28] = biological target: Fuc(a1-2)[GalNAc(a1-3)]Gal(b1-3)GlcNAc(b1-3)GalNAc
# In short: as §1
# [29] = biological target: Fuc(a1-2)[GalNAc(a1-3)]Gal(b1-3)GlcNAc(b1-6)GalNAc
# In short: as §1
# [30] = biological target: Fuc(a1-2)[GalNAc(a1-3)]Gal(b1-4)Glc
# In short: as §1
# [31] = biological target: Fuc(a1-2)[GalNAc(a1-3)]Gal(b1-4)GlcNAc
# In short: as §1
# [32] = biological target: Fuc(a1-2)[GalNAc(a1-3)]Gal(b1-4)GlcNAc(b1-2)Man
# In short: as §1
# [33] = biological target: Fuc(a1-2)[GalNAc(a1-3)]Gal(b1-4)GlcNAc(b1-2)Man(a1-3)[Fuc(a1-2)[GalNAc(a1-3)]Gal(b1-4)GlcNAc(b1-2)Man(a1-6)]Man(b1-4)GlcNAc(b1-4)GlcNAc
# In short: as §1
# [34] = biological target: Fuc(a1-2)[GalNAc(a1-3)]Gal(b1-4)GlcNAc(b1-2)Man(a1-3)[Fuc(a1-2)[GalNAc(a1-3)]Gal(b1-4)GlcNAc(b1-2)Man(a1-6)]Man(b1-4)GlcNAc(b1-4)[Fuc(a1-6)]GlcNAc
# In short: as §1
# [35] = biological target: Fuc(a1-2)[GalNAc(a1-3)]Gal(b1-4)GlcNAc(b1-3)Gal(b1-4)GlcNAc
# In short: as §1
# [36] = biological target: Fuc(a1-2)[GalNAc(a1-3)]Gal(b1-4)GlcNAc(b1-3)Gal(b1-4)GlcNAc(b1-3)Gal(b1-4)GlcNAc
# In short: as §1
# [37] = biological target: Fuc(a1-2)[GalNAc(a1-3)]Gal(b1-4)GlcNAc(b1-3)GalNAc
# In short: as §1
# [38] = biological target: Fuc(a1-2)[GalNAc(a1-3)]Gal(b1-4)GlcNAc(b1-3)[Fuc(a1-2)[GalNAc(a1-3)]Gal(b1-4)GlcNAc(b1-6)]GalNAc
# In short: as §1
# [39] = biological target: Fuc(a1-2)[GalNAc(a1-3)]Gal(b1-4)GlcNAc(b1-6)GalNAc
# In short: as §1
# [40] = biological target: Fuc(a1-2)[GalNAc(a1-3)]Gal(b1-4)[Fuc(a1-3)]GlcNAc
# In short: as §1
# [41] = biological target: Fuc(a1-2)[GalNAc(a1-3)]Gal(b1-4)[Fuc(a1-3)]GlcNAc(b1-3)GalNAc
# In short: as §1
# [42] = biological target: Fuc(a1-2)[GalNAc(a1-4)]Gal(b1-4)GlcNAc
# In short: as §1
# [43] = biological target: Fuc(a1-2)[GalNAc(b1-3)]Gal
# In short: as §1
binder,measurement,setting,value
B1,glycan array binding signal (z-score),[1],-0.221
same,glycan array binding signal (z-score),Fuc(a1-2)Gal6S(b1-4)Glc,-0.058
same,glycan array binding signal (z-score),[2],-0.137
same,glycan array binding signal (z-score),Fuc(a1-2)[Gal(a1-3)]Gal,0.074
same,glycan array binding signal (z-score),[3],0.211
same,glycan array binding signal (z-score),[4],0.096
same,glycan array binding signal (z-score),[5],-0.395
same,glycan array binding signal (z-score),[6],-0.192
same,glycan array binding signal (z-score),[7],0.402
same,glycan array binding signal (z-score),[8],-0.396
same,glycan array binding signal (z-score),[9],-0.424
same,glycan array binding signal (z-score),[10],-0.243
same,glycan array binding signal (z-score),[11],-0.22
same,glycan array binding signal (z-score),[12],0.285
same,glycan array binding signal (z-score),[13],-0.379
same,glycan array binding signal (z-score),[14],-0.225
same,glycan array binding signal (z-score),[15],-0.05
same,glycan array binding signal (z-score),[16],-1.18
same,glycan array binding signal (z-score),[17],-0.44
same,glycan array binding signal (z-score),[18],-0.025
same,glycan array binding signal (z-score),[19],-0.28
same,glycan array binding signal (z-score),[20],0.018
same,glycan array binding signal (z-score),[21],0.706
same,glycan array binding signal (z-score),[22],-0.341
same,glycan array binding signal (z-score),[23],-0.538
same,glycan array binding signal (z-score),[24],0.293
same,glycan array binding signal (z-score),[25],-0.116
same,glycan array binding signal (z-score),[26],-0.173
same,glycan array binding signal (z-score),[27],-0.4
same,glycan array binding signal (z-score),[28],1.17
same,glycan array binding signal (z-score),[29],-0.528
same,glycan array binding signal (z-score),[30],-0.375
same,glycan array binding signal (z-score),[31],-0.399
same,glycan array binding signal (z-score),[32],-0.275
same,glycan array binding signal (z-score),[33],-0.415
same,glycan array binding signal (z-score),[34],-0.316
same,glycan array binding signal (z-score),[35],-0.397
same,glycan array binding signal (z-score),[36],0.384
same,glycan array binding signal (z-score),[37],-0.765
same,glycan array binding signal (z-score),[38],-0.627
same,glycan array binding signal (z-score),[39],-0.49
same,glycan array binding signal (z-score),[40],-0.293
same,glycan array binding signal (z-score),[41],4.75
same,glycan array binding signal (z-score),[42],-0.403
same,glycan array binding signal (z-score),[43],-0.222
